# Measurements as given in PMC3846882.
# Chains of the proteins cited; added tags and fusions are not shown.
# UniProt Q15046: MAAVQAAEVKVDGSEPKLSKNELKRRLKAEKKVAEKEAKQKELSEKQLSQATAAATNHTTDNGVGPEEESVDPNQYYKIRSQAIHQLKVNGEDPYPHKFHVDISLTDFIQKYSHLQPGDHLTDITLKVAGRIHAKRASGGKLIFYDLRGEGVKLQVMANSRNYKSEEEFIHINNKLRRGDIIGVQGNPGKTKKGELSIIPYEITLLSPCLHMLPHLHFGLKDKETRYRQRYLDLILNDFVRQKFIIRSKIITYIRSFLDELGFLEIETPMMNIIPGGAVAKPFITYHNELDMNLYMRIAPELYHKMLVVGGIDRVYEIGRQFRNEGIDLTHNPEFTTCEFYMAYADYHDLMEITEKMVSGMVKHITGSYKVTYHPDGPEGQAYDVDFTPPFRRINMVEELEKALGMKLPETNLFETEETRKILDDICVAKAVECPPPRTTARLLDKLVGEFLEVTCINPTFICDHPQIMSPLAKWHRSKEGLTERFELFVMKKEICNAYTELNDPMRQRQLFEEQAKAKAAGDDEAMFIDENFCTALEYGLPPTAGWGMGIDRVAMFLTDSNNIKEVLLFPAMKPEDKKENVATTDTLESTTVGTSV
# UniProt P07814: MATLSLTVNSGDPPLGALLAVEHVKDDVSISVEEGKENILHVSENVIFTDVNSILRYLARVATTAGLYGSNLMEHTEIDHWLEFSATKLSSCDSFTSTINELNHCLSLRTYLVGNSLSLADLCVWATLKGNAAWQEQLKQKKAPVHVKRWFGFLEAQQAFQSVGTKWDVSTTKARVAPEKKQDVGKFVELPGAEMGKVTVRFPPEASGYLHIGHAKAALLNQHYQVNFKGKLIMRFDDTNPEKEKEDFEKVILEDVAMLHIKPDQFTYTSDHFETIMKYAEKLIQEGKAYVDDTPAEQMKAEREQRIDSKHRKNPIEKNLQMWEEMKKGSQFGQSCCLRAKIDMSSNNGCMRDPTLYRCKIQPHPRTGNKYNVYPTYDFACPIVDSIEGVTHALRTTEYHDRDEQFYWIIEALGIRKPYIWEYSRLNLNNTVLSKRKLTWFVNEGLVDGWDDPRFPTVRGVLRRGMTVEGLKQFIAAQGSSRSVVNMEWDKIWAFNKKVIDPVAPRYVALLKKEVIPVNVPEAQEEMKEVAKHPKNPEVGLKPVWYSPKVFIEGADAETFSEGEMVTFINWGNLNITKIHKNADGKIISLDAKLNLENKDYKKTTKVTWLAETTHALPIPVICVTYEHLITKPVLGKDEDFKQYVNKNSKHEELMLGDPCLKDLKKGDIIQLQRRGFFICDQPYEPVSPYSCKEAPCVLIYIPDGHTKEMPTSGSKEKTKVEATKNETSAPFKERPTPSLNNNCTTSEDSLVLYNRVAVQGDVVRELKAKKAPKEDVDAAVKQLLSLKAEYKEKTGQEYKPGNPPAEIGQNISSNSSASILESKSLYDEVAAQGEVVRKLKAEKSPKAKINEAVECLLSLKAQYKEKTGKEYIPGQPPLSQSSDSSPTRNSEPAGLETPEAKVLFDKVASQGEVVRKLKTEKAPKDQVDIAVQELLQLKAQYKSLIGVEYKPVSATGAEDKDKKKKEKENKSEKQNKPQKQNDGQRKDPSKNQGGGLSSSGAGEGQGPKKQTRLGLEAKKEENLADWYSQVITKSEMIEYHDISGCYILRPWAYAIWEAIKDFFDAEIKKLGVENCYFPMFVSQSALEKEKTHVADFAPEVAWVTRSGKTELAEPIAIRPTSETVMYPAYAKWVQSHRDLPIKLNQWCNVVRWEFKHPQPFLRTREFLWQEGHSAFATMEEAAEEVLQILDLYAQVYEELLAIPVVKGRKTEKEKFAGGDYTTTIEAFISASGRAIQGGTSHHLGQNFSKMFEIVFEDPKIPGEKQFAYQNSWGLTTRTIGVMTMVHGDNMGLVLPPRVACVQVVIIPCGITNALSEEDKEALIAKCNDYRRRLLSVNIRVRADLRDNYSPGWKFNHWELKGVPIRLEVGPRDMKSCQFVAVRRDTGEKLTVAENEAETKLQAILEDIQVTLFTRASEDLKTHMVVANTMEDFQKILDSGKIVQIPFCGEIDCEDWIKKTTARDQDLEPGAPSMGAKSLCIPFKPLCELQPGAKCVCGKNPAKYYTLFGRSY
# These are yes or no findings as the source states them, for the method shown. In cells and extracts the contact can be indirect. Some entries that bind do so weakly or less than the wild type. For some assays here: Where a sequence is shown, tags or fusion partners need not be part of it.
# What was measured:
# [1] = target: T1, Isoform 1 of Probable threonyl-tRNA synthetase 2 (human (endogenous in HEK 293T and HCT-8)) (UniProt A2RTX5); assay: co-IP; endogenous proteins; 500 μg lysate of HEK 293T and HCT-8 cells in NETN buffer, primary antibody 2 h at 4 °C, protein A/G PLUS-Agarose 12 h, immunoblot; IgG as control
# T1 sequence: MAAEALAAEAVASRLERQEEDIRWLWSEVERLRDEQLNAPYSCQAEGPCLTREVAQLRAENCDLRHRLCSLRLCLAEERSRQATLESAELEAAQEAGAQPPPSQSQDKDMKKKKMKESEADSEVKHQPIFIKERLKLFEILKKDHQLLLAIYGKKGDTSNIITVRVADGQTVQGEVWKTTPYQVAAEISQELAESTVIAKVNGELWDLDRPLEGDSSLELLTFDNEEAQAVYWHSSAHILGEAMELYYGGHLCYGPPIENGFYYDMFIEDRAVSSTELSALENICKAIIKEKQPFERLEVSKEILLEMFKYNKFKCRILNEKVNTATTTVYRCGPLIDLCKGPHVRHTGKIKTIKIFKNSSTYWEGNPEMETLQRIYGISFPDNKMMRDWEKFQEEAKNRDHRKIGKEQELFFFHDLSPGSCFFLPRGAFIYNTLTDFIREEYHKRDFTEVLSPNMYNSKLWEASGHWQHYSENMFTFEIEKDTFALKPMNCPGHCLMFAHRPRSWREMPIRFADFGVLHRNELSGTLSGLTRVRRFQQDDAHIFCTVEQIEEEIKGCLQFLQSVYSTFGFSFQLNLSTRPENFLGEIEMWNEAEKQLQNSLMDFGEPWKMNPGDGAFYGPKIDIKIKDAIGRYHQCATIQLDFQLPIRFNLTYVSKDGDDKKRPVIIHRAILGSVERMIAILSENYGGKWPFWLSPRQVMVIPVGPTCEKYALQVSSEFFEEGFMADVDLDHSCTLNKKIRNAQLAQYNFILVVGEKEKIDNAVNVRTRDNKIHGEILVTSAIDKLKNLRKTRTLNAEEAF
# [2] = target: T2, threonyl-tRNA synthetase (human (endogenous in HEK 293T and HCT-8)) (UniProt P26639); assay: as above
# T2 sequence: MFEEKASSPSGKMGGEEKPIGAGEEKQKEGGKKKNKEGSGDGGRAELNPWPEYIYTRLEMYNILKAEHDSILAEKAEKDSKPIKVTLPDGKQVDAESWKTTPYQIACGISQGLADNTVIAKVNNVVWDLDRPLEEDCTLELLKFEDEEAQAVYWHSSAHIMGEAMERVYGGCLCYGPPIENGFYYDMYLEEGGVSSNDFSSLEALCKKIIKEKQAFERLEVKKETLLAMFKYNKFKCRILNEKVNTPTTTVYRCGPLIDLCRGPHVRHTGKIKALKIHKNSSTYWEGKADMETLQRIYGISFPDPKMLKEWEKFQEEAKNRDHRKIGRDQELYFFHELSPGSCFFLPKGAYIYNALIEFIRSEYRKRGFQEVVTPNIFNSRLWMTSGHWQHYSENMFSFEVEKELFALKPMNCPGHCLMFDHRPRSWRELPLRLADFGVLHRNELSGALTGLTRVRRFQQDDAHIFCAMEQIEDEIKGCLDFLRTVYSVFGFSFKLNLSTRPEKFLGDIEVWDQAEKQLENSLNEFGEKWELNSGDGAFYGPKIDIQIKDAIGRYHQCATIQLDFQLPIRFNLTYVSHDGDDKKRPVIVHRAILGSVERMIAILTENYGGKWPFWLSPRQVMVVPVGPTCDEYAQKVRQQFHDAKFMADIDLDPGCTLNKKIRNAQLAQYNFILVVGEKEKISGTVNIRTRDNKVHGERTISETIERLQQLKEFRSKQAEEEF
# S/FLAG/SBP tagged AIMP1 = target: T3, S/FLAG/SBP tagged AIMP1 (UniProt Q12904); assay: pull-down; streptavidin pull down (SA pull down) of S/FLAG/SBP-tagged bait from lysates of transfected HEK 293T and HCT-8 cells in NETN buffer, eluate immunoblotted for endogenous proteins; mock vector as control
# T3 sequence: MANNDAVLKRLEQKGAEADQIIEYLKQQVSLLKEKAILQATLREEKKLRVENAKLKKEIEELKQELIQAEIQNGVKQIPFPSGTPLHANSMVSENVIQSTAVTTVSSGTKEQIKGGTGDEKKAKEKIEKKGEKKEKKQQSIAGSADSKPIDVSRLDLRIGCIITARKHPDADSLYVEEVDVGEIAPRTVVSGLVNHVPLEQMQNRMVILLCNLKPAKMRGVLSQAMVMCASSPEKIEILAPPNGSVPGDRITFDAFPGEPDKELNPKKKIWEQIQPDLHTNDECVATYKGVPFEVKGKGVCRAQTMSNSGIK
# S/FLAG/SBP tagged AIMP2 = target: T4, S/FLAG/SBP tagged AIMP2 (UniProt Q13155); assay: as above
# T4 sequence: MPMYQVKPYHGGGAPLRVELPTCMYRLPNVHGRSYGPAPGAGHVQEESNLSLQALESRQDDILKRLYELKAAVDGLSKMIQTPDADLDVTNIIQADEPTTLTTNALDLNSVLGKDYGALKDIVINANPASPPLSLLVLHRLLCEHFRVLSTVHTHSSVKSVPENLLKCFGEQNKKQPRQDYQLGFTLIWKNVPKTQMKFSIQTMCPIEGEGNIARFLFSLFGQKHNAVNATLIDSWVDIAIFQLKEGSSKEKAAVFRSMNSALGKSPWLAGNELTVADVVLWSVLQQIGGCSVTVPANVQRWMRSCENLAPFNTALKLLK
# S/FLAG/SBP tagged KARS = S/FLAG/SBP tagged KARS (UniProt Q15046); assay: as above
Substance,binding [1],binding [2],binding (S/FLAG/SBP tagged AIMP1),binding (S/FLAG/SBP tagged AIMP2),binding (S/FLAG/SBP tagged KARS)
Bifunctional aminoacyl-tRNA synthetase (glutamyl-prolyl-tRNA synthetase) (from UniProt P07814 1-1512) (enzyme),binds,binds weakly,binds,binds,binds
ISGylated TARS (from UniProt P26639 1-723; P05161 1-157),,,no binding,no binding,no binding
